Hit rate of the full screen: of about 420,000 compounds, about 64,000 (15%) were called active. The shares of active, inactive and inconclusive entries below differ from those in the screen. Calls come from the whole dose curve; as a rule, active = well fitted inhibition curve with a large enough effect; inconclusive = small, poorly fitted or top-dose-only effect; inactive = flat fitted curve, though single readings scatter. No potency is given beside an inconclusive call; the fits are too rough.
assay: qHTS for Inhibitors of human tyrosyl-DNA phosphodiesterase 1 (TDP1): qHTS in cells in absence of CPT; details: DT40 Tdp1-/- hTDP1 cells, no CPT, ATP luminescence, 48 h; activity change, negative = growth inhibition: at 46.2 µM (top of the series); note: nearly all actives have a fitted effect of over 55% in size
In short: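 Luminescent ATP content (CellTiter-Glo) served as the growth readout. Knockout chicken DT40 cells expressing human TDP1 were exposed to compounds without camptothecin for a minimum 48 hr at 37 °C.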
% is set by controls: 0 for no effect and ±100 for the full control effect; potency is the fitted concentration of half-maximal effect; tags give direction and shape of the fitted curve.

SMILES	Potency	activity change, negative = growth inhibition
O=C(CCN1C(=O)c2ccccc2S1(=O)=O)Nc1ccc(C(=O)O)cc1	inactive	–
Cc1ccccc1NC(=O)C1Cc2ccccc2CN1C(=O)c1ccco1 (stereo not drawn)	inactive	–
COc1cc2c(cc1OC)C(/C=C/c1ccc(OC)c(OC)c1OC)=NCC2	inconclusive [inhibitor, single point]	–
O=C(COC(=O)C(O)c1ccccc1)NC12CC3CC(CC(C3)C1)C2 (stereo not drawn)	–	inconclusive: -33.5% [inhibitor]
Cc1sc2ncnc(NCC(c3ccco3)N3CCCC3)c2c1C (stereo not drawn)	inconclusive [inhibitor, single point]	–
CCc1cc2c(SCC(=O)C(C#N)=C3N(C)c4ccccc4N3C)ncnc2s1	inconclusive [inhibitor, single point]	–
O=C(COc1ccccc1[N+](=O)[O-])N1CCC(Cc2ccccc2)CC1	inactive	–
O=C(NCCN1Cc2ccccc2OC(c2ccccc2F)C1)c1ccco1 (stereo not drawn)	inconclusive [inhibitor, single point]	–
CC1Cn2c(C(=O)NCc3ccccc3Cl)cc3cccc(c32)S1 (stereo not drawn)	inconclusive [inhibitor, single point]	–
CCC1(C)NC(=O)N(CC(=O)Nc2cc(C)on2)C1=O (stereo not drawn)	inactive	–
COc1cccc(CN2CCN(Cc3cc(OC)c(OC)cc3[N+](=O)[O-])CC2)c1	active: 16.4 µM	–
CCCN(CCC)Cc1cc(=O)oc2cc(C)ccc12	inconclusive [inhibitor, single point]	–
O=c1[nH]c(CSc2nnc(-c3cccnc3)n2C2CCCCC2)nc2ccccc12	inconclusive [inhibitor, partial curve]	–
COc1ccc(N(CC(=O)N2CCc3ccccc32)S(=O)(=O)c2c(C)nn(C)c2C)cc1	inconclusive [inhibitor, single point]	–
O=C(NCC(c1cccs1)S(=O)(=O)c1cccs1)c1c(F)cccc1F (stereo not drawn)	inconclusive [inhibitor, single point]	–
CCCOc1ccc(C(=O)N(Cc2ccco2)Cc2ccco2)cc1	inconclusive [inhibitor, single point]	–
CCSc1oc(-c2ccco2)nc1S(=O)(=O)c1ccc(C)cc1	inconclusive [inhibitor, single point]	–
COC(=O)c1nn(C)c(=O)[nH]c1=O	inactive	–
COc1cc(/C=C2/CCc3ccccc3C2=O)cc(OC)c1OC	active: 14.6 µM	–
COc1ccc(CCNC(=O)CCc2c(C)nc3cc(-c4cccc(F)c4)nn3c2C)cc1OC	active: 8.2 µM	–
Cc1cccc(NC(=O)c2cccc(NC3=NC4CS(=O)(=O)CC4S3)c2)c1 (stereo not drawn)	inactive	–
O=C(O)c1sccc1Oc1ccc(NS(=O)(=O)c2cccc(F)c2)cc1	inactive	–
CCN1C(=O)/C(=C2\SC(=S)N(c3c(C)n(C)n(-c4ccccc4)c3=O)C2=O)c2ccccc21	inconclusive [inhibitor, single point]	–
Cc1cccc(NC(=O)Nc2ccncc2)c1	inconclusive [inhibitor, single point]	–
CSc1cccc(NC(=O)CSc2nnc(C)s2)c1	inactive	–

SMILES	Potency	activity change, negative = growth inhibition
C=CCn1c(N(C)C)nc2c1c(=O)[nH]c(=O)n2C	inactive	–
CCOc1cc2[nH]c(=S)n(C3CCN(Cc4ccccc4)CC3)c(=O)c2cc1OCC	inconclusive [inhibitor, full curve, poor fit]	–
O=C(c1cccnc1)N(Cc1ccccc1)C(=O)c1cccnc1	inactive	–
COc1ccnc(CS(=O)c2nc3ccc(OC(F)F)cc3[nH]2)c1OC (stereo not drawn)	inconclusive [inhibitor, single point]	–
Nc1ccc(C(=O)N/N=C\c2cc(N=Nc3cccc4ccccc34)ccc2O)cc1	active: 4.61 µM	–
CSc1ccc(OC2(C)CCN(Cc3ccccc3)C2)cc1 (stereo not drawn)	inconclusive [inhibitor, single point]	–
CCOc1ccccc1N1CCN(C(=O)c2cc3ccccc3cc2OC)CC1	active: 4.61 µM	–
Cc1cc(C)cc(NC(=O)C2C3C=CC4(O3)C2C(=O)N(CCCN(C)C)C4C(=O)NC2CCCC(C)C2C)c1 (stereo not drawn)	inactive	–
O=C1C(Cl)=C(Nc2ccc(O)cc2)C(=O)c2ccccc21	inconclusive [inhibitor, single point]	–
COc1ccc(C(CNC(=O)c2cccc3cccnc23)N(C)C)cc1 (stereo not drawn)	inconclusive [inhibitor, single point]	–
Cc1cccc(NC(=O)c2ccc(S(=O)(=O)N3CCN(C)CC3)cc2)c1C	inactive	–
COC(=O)[C@@]12C[C@@H](CC(=O)N3CCN(C(=O)C4CC4)CC3)C(=O)N(Cc3ccc4c(c3)OCO4)C1=CCC(C)(C)C2	active: 16.4 µM	–
COc1cc(C#Cc2c(C=O)n(C)c3ccccc23)cc(OC)c1	active: 23.1 µM	–
COc1ccc(C(C)=O)cc1CSc1nc2ccccc2c(=O)n1-c1ccccc1C	active: 20.6 µM	–
Cc1ccc(S(=O)(=O)Nc2ccc3c(c2)C(=O)N([C@H](C)CO)C[C@H](C)[C@@H](CN(C)C(=O)Nc2ccc(C(F)(F)F)cc2)O3)cc1	inconclusive [inhibitor, single point]	–
CCc1cccc(NC(=S)Nc2ccc(CN3CCOCC3)cc2)c1	inactive	–
Cc1cc(C)c2c(CC(=O)Nc3cc(C(F)(F)F)ccc3Cl)coc2c1	inconclusive [inhibitor, single point]	–
O=C(C[n+]1ccnc2ccccc21)c1ccc(Cl)cc1	inconclusive [inhibitor, partial curve, poor fit]	–
CCCN1C(=O)S/C(=C\c2ccc(N3CCOCC3)o2)C1=O	active: 20.6 µM	–
COc1ccc(C(=O)Nc2cccc(C(=O)OCc3cc(=O)n4c5c(sc4n3)CCCC5)c2)cc1	inconclusive [inhibitor, single point]	–
CCOC(=O)c1ccc(CNC(=O)CSc2nc(NC(=O)c3ccccc3)c3c(C)c(C)oc3n2)cc1	–	inconclusive: -33.5% [inhibitor]
Cc1ccc(CCNC(=O)CCCc2nnc3n(C)c(=O)c4sccc4n23)cc1	inconclusive [inhibitor, single point]	–
Cc1cc(C(=O)COc2ccc(C#N)cc2)c(C)n1-c1ccc2c(c1)OCO2	active: 9.2 µM	–
Cc1onc(-c2c(F)cccc2Cl)c1C(=O)OCC(=O)NCc1ccccc1	inconclusive [inhibitor, single point]	–
Cc1ccc(S(=O)(=O)NCCC(=O)Nc2ccc(C)c(Cl)c2)cc1C	inactive	–

SMILES	Potency	activity change, negative = growth inhibition
COC(=O)C1=C(C)NC2=C(C(=O)CCC2)C1c1cccc(C)n1 (stereo not drawn)	inactive	–
Cc1cc(-c2nn(-c3ccccc3F)cc2CN2CCCC(CO)C2)c(C)s1 (stereo not drawn)	inconclusive [inhibitor, single point]	–
O=[N+]([O-])c1ccc2c(c1Nc1ccccc1)=NC1(CCCCC1)N=2	inconclusive [inhibitor, partial curve]	–
CC(OC(=O)CCc1nc2ccccc2c(=O)[nH]1)C(=O)NCc1ccc2c(c1)OCO2 (stereo not drawn)	inactive	–
CN(C)CCOC(=O)c1sc2ccccc2c1Cl	inactive	–
CCN1CCCc2cc(CN(CCN3CCOCC3)C(=O)Nc3ccc(C)c(C)c3)ccc21	active: 25.9 µM	–
Cc1ccccc1-c1nnc(SCCOc2ccc3c(C)cc(=O)oc3c2)o1	inconclusive [inhibitor, single point]	–
Cc1ccc(NC(=O)OCCN2CCN(S(=O)(=O)c3ccc(C)cc3)CCC2=O)cc1	inconclusive [inhibitor, partial curve, poor fit]	–
Cc1cc(C)c2c(n1)sc1c(=O)n(Cc3ccc(F)cc3)cnc12	inconclusive [inhibitor, single point]	–
CCn1cc(-c2n[nH]c(=S)n2-c2ccc(C)cc2Br)c(=O)c2ccc(C)nc21	–	inconclusive: -30.9% [inhibitor]
CCOC(=O)c1ccc(NC(=O)c2ccc(OC(C)C)c(OC)c2)cc1	inconclusive [inhibitor, single point]	–
COc1ccc(NC(=O)CSc2nc(=O)n(CCN3CCOCC3)c3c2CCCC3)c(OC)c1	inactive	–
Cc1ccc(C)c(Oc2coc3cc(O)ccc3c2=O)c1	inactive	–
CC(=O)c1ccc(OCC(O)CN2CC(C)OC(C)C2)cc1 (stereo not drawn)	inactive	–
O=C1CN(C(=O)COC(=O)CCC(=O)c2ccc3c(c2)OCCO3)c2ccccc2N1	inactive	–
COc1ccc(OC)c(-c2nn(-c3ccccc3)cc2C(=O)NCC(c2ccco2)N2CCCC2)c1 (stereo not drawn)	active: 20.6 µM	–
C[C@@H]1CN([C@H](C)CO)C(=O)CCCn2cc(nn2)CO[C@H]1CN(C)C(=O)Nc1cccc(Oc2ccccn2)c1	inactive	–
O=C1c2ccc3c4c(ccc(c24)C(=O)N1c1cccc(O)c1)C(=O)N(c1cccc(O)c1)C3=O	active: 6.51 µM	–
COc1ccc(OCC(=O)Nc2ccc3c(c2)nc(CCN2CCC(C)CC2)n3C)cc1	inactive	–
O=C(CCc1nnc(CCC2CCCCC2)o1)NCCn1cccn1	inactive	–
COCCCn1c(=O)c2sccc2n2c(CCCC(=O)Nc3ccc(F)c(F)c3)nnc12	inconclusive [inhibitor, single point]	–
Cc1ccc2nc(-c3ccccc3)cc(C(=O)N(C)CC(=O)Nc3ccccc3Br)c2c1	active: 25.9 µM	–
c1cnc(Nc2nc(-c3ccc4ccccc4c3)cs2)nc1	inconclusive [inhibitor, partial curve]	–
